The values below come from the supplement of paper PMC3334620.

In all, about 33,000 sequences were measured (“E-score (-0.5 to 0.5)”: median about -0.011, highest 2% from about 0.28 on). Some of the results follow.

For this assay, the target named is T1, Gcr1 (UniProt P07261).
T1 sequence: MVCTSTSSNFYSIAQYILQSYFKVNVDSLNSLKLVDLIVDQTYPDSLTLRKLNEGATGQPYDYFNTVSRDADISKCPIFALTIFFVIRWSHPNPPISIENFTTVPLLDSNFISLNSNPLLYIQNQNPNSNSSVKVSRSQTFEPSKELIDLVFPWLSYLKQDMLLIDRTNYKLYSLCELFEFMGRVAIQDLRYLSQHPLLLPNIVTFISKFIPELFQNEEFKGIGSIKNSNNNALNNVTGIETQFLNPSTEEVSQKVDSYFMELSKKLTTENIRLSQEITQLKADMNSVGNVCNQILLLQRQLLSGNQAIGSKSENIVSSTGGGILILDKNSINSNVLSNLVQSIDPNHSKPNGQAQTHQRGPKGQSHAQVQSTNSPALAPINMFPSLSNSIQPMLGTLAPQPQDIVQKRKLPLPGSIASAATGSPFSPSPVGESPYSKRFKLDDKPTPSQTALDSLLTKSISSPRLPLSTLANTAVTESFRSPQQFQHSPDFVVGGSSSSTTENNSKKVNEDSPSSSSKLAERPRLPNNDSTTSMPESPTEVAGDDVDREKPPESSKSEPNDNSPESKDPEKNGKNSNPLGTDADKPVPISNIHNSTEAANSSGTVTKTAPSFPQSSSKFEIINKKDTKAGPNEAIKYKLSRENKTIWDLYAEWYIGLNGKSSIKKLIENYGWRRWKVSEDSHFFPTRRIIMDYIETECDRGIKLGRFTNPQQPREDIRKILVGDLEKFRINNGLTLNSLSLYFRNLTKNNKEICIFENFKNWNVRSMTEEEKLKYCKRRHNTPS
The assay is described as follows: PBM E-score (8-mer binding enrichment) (E-score (-0.5 to 0.5)); higher = stronger / more preferred TF binding; most listed sequences are background and not binding sites. The conditions noted are these: protein concentration: 100 nM; construct: GST-full length. The method, boiled down:
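Masliner-normalised scans of fluorescent anti-GST signal were the basis for scoring. That signal came from GST-tagged yeast transcription factors applied at about 100-200 nM to double-stranded universal all-10-mer Agilent arrays on fresh or once-stripped slides. Each ungapped eight-base word, pooled with its reverse complement, received an E-score from the Universal PBM Analysis Suite.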
Consider TCCTCAAA, for which the “PBM E-score” value came to 0.166.
As for CGCTCCCC, the “PBM E-score” value was -0.0692.
Take CCGTTTCA: the “PBM E-score” value amounted to 0.0614.
For the sequence ACAGGTTG, the “PBM E-score” value was determined as 0.26.
As to ACGCAAGA, the “PBM E-score” value is -0.102.
As to ATGGAAAG, the “PBM E-score” value worked out at 0.0176.
For the sequence GCAACCGC, the “PBM E-score” value turned out to be 0.00581.
Turning to GTCTCACA, the “PBM E-score” value was -0.104.
Regarding AGAGGGGA, the “PBM E-score” value was -0.138.
Consider AACCGGCG, for which the “PBM E-score” value came to 0.177.
Turning to GATTGGAA, the “PBM E-score” value is 0.258.
For the sequence GATACTAA, the “PBM E-score” value turned out to be 0.0118.
On to AAGTCATA, for which the “PBM E-score” value was -0.0284.
The figure for AGCCTCCG is 0.0816; for TACATAGA it is -0.0753.
Regarding CTCTACGA, the “PBM E-score” value was -0.144.
Regarding CAGTGTCA, the “PBM E-score” value was -0.103.
Regarding CCACGCTA, the “PBM E-score” value was -0.136.
The same measure for AGTTTGAC: 0.111; for ATCAAGAC: 0.0131; for CCACTTCC: 0.305.
The figure for ACGGATAA is -0.188.
For the sequence CATTTCGG, the “PBM E-score” value turned out to be 0.147.
Turning to CTGCTGCA, the “PBM E-score” value came out at 0.0766.
With CGCAGAAC, the “PBM E-score” value is -0.023.
For the sequence CGCGGAAA, the “PBM E-score” value was -0.192.
Consider CAGCGACA, for which the “PBM E-score” value came to 0.067.
In the case of GAAACACA, the “PBM E-score” value was found to be 0.217.
The figure for GACCCATC is -0.0963; for CCATCCTC it is -0.0032.
Consider TCCTCGCA, for which the “PBM E-score” value was -0.0249.
Consider CAAAGATG, for which the “PBM E-score” value was 0.016.
As for CGCATCTC, the “PBM E-score” value worked out at 0.0271.
In the case of AGCACTCG, the “PBM E-score” value stood at 0.00423.
On to ACCCGTCG, for which the “PBM E-score” value is -0.0991.
In the case of AGGAAAGA, the “PBM E-score” value is -0.0392.
As to AACTTTGA, the “PBM E-score” value came to 0.0812.
AGTCCTGG: the “PBM E-score” value was 0.0342.
Regarding AAGGAATG, the “PBM E-score” value came out at 0.13.
Turning to ATCTTCAA, the “PBM E-score” value was found to be 0.0235.
Consider AATATGAG, for which the “PBM E-score” value came out at 0.134.
For GACGAATA, the “PBM E-score” value stood at 0.122.
For the sequence CGTACAGA, the “PBM E-score” value was -0.358.
Take CACTCGCC: the “PBM E-score” value is -0.19.
The same measure for GGGCCTGA: -0.266.
In the case of AGGGCATG, the “PBM E-score” value is -0.176.
Consider ACCGTGAA, for which the “PBM E-score” value is -0.0845.
With AGCCTACA, the “PBM E-score” value was -0.106.
As to CTTGCCGA, the “PBM E-score” value was -0.146.
Regarding CCGCACCG, the “PBM E-score” value was -0.181.
The same measure for ATTAGCTC: 0.00193.
The figure for ATAACCTA is 0.109; for ACCTCAGC it is -0.203; for ACATTGAA it is 0.184.
For the sequence ATCTAGCC, the “PBM E-score” value is 0.0906.
The same measure for CAGACTCG: -0.205; for ACACGCTC: -0.05.
With GGGGCGCA, the “PBM E-score” value was -0.123.
The same measure for ATGTCATC: 0.197; for CACGAAGA: -0.098; for CCGGTACA: 0.0516.
As for CAACAGCC, the “PBM E-score” value was -0.0244.
As to ACTGATGG, the “PBM E-score” value was -0.069.
Take ACGTAGTA: the “PBM E-score” value is -0.105.
On to ACGGGCGA, for which the “PBM E-score” value is -0.096.
The figure for AGTGCCAG is 0.015.
In the case of ACAGGTGC, the “PBM E-score” value worked out at 0.16.
Turning to CGGGGACC, the “PBM E-score” value came to 0.233.
Regarding ATTCCGAG, the “PBM E-score” value was 0.122.
The same measure for AAGCATTC: -0.152; for AGTGTATG: 0.0598; for AGGCGTCA: -0.194.
Consider ACGCTTAG, for which the “PBM E-score” value is -0.164.
For CAGGTTCG, the “PBM E-score” value was -0.0191.
In the case of AATCGTCT, the “PBM E-score” value was found to be 0.099.
On to AGACTACA, for which the “PBM E-score” value is -0.0339.
Turning to ATTTATGC, the “PBM E-score” value turned out to be 0.0089.
The figure for GACAAAAC is -0.0151; for TTAAGTAA it is 0.0602; for CTAAGGAC it is -0.0792.
The figure for ATTAGCGA is 0.0317; for ATTACATC it is 0.0535; for ACTTGTCC it is -0.149.
As for CTAAGGTA, the “PBM E-score” value is -0.014.
Turning to AATACGTC, the “PBM E-score” value was found to be 0.00419.
Regarding CTTACGCA, the “PBM E-score” value was 0.111.
Take ATATTCTG: the “PBM E-score” value was 0.146.
On to TCATACAA, for which the “PBM E-score” value was 0.0816.
CCAGCTCG: the “PBM E-score” value is -0.21.
CTATTGAA: the “PBM E-score” value is 0.112.
For CGGAGGCC, the “PBM E-score” value amounted to 0.163.
Regarding CACTGGCA, the “PBM E-score” value worked out at 0.13.
For the sequence AGGGGATC, the “PBM E-score” value was 0.0483.
With AGCGACCC, the “PBM E-score” value is -0.264.
Turning to ATTGTCAG, the “PBM E-score” value was -0.0749.
GTCTGCAA: the “PBM E-score” value was -0.0339.
For the sequence TAGTGACA, the “PBM E-score” value is 0.0143.
Consider GGTAGCTA, for which the “PBM E-score” value stood at 0.0744.
Consider AGGTATAT, for which the “PBM E-score” value was -0.00061.
Turning to ACAAGCCT, the “PBM E-score” value is -0.193.
AGATAAGG: the “PBM E-score” value is -0.0257.
Regarding AGCCGCAG, the “PBM E-score” value was determined as 0.0493.
For the sequence ACTGTACC, the “PBM E-score” value is -0.0819.
Take GAGAGACA: the “PBM E-score” value was -0.0427.
The figure for CGTAATCC is 0.0629; for ACTTCGAA it is 0.0115; for ATTGACGC it is 0.0548.
In the case of AGAGTCAT, the “PBM E-score” value is -0.0622.
As to GCGCGTTA, the “PBM E-score” value is -0.00066.
As for AGCGTCAA, the “PBM E-score” value came out at 0.0252.
